Where two headings read alike, the source gives them in different places.
How the values were obtained:
NZB/W F1 mice [1] = settings: Example 2, daily from 5 months of age (CYC202 200 mg/kg gavage, MPS […] i.p.)
NZB/W F1 mice [2] = experiment: Proteinuria (urinary protein excretion) in NZB/W F1 lupus mice; format: in vivo; settings: Example 2; for Cumulative percentage of mice with proteinuria >4 mg/day: daily from 5 months of age (CYC202 200 mg/kg gavage, MPS […] i.p.)
Method: Urinary protein excretion: determined every month until 5 months of age and then every two weeks.
Urinary protein excretion: determined every month until 5 months of age and then every two weeks;
Urinary protein concentration was determined by the Coomassie blue G dye-binding assay with bovine serum albumin as standard. Renal function was assessed as BUN in heparinized blood by the Reflotron test (Roche Diagnostics Corporation, Indianapolis, USA).

NZB/W F1 mice [3] = settings: Example 2; for Renal Function - Cumulative % mice with BUN >30 mg/dl: daily from 5 months of age (CYC202 200 mg/kg gavage, MPS […] i.p.)

C[C@H]1C[C@@H]2[C@H]([C@@H](O)C[C@@]3(C)[C@H]2CC[C@]3(O)C(=O)CO)[C@@]2(C)C=CC(=O)C=C12 [MPS, 11,17,21-trihydroxy-6-methyl-(6a,11b)-pregna-1,4-diene-3,20-dione, reference compound]
Survival % (NZB/W F1 mice [1]; age 5 months (pre-treatment)): 100% | Survival % (NZB/W F1 mice [1]; age 5.5 months): 100% | Survival % (NZB/W F1 mice [1]; age 6 months): 100% | Survival % (NZB/W F1 mice [1]; age 6.5 months): 92% | Survival % (NZB/W F1 mice [1]; age 7 months): 75% | Survival % (NZB/W F1 mice [1]; age 7.5 months): 67% | Survival % (NZB/W F1 mice [1]; age 8 months): 67% | Survival % (NZB/W F1 mice [1]; age 8.5 months): 67% | Survival % (NZB/W F1 mice [1]; age 9 months): 42% | Survival % (NZB/W F1 mice [1]; age 9.5 months): 42% | Survival % (NZB/W F1 mice [1]; age 10 months): 33% | Survival % (NZB/W F1 mice [1]; age 10.5 months): 33% | Survival % (NZB/W F1 mice [1]; age 11 months): 33% | Survival % (NZB/W F1 mice [1]; age 11.5 months): 33% | Survival % (NZB/W F1 mice [1]; age 12 months): 33% | Cumulative percentage of mice with proteinuria >4 mg/day (NZB/W F1 mice [2]; age 5 months (pre-treatment)): 0% | Cumulative percentage of mice with proteinuria >4 mg/day (NZB/W F1 mice [2]; age 5.5 months): 0% | Cumulative percentage of mice with proteinuria >4 mg/day (NZB/W F1 mice [2]; age 6 months): 16.7% | Cumulative percentage of mice with proteinuria >4 mg/day (NZB/W F1 mice [2]; age 6.5 months): 33.3% | Cumulative percentage of mice with proteinuria >4 mg/day (NZB/W F1 mice [2]; age 7 months): 33.3% | Cumulative percentage of mice with proteinuria >4 mg/day (NZB/W F1 mice [2]; age 7.5 months): 50% | Cumulative percentage of mice with proteinuria >4 mg/day (NZB/W F1 mice [2]; age 8 months): 75% | Cumulative percentage of mice with proteinuria >4 mg/day (NZB/W F1 mice [2]; age 8.5 months): 75% | Cumulative percentage of mice with proteinuria >4 mg/day (NZB/W F1 mice [2]; age 9 months): 75% | Cumulative percentage of mice with proteinuria >4 mg/day (NZB/W F1 mice [2]; age 9.5 months): 75% | Cumulative percentage of mice with proteinuria >4 mg/day (NZB/W F1 mice [2]; age 10 months): 75% | Cumulative percentage of mice with proteinuria >4 mg/day (NZB/W F1 mice [2]; age 10.5 months): 75% | Cumulative percentage of mice with proteinuria >4 mg/day (NZB/W F1 mice [2]; age 11 months): 75% | Cumulative percentage of mice with proteinuria >4 mg/day (NZB/W F1 mice [2]; age 11.5 months): 75% | Cumulative percentage of mice with proteinuria >4 mg/day (NZB/W F1 mice [2]; age 12 months): 75% | Onset of proteinuria compared to vehicle (NZB/W F1 mice [2]; treatment from 5 months of age): only partially affected the onset of proteinuria | Renal Function - Cumulative % mice with BUN >30 mg/dl (NZB/W F1 mice [3]; age 5 months (before treatment)): 0% | Renal Function - Cumulative % mice with BUN >30 mg/dl (NZB/W F1 mice [3]; age 6 months): 0% | Renal Function - Cumulative % mice with BUN >30 mg/dl (NZB/W F1 mice [3]; age 7 months): 17% | Renal Function - Cumulative % mice with BUN >30 mg/dl (NZB/W F1 mice [3]; age 8 months): 42% | Renal Function - Cumulative % mice with BUN >30 mg/dl (NZB/W F1 mice [3]; age 9 months): 50% | Renal Function - Cumulative % mice with BUN >30 mg/dl (NZB/W F1 mice [3]; age 10 months): 58% | Renal Function - Cumulative % mice with BUN >30 mg/dl (NZB/W F1 mice [3]; age 11 months): 58% | Renal Function - Cumulative % mice with BUN >30 mg/dl (NZB/W F1 mice [3]; age 12 months): 67% | Renoprotective effect (serum BUN) (NZB/W F1 mice [3]; given alone versus in combination): less renoprotective effect than when used in combination
